Experimental data: publication PMC4336329 (PLoS ONE, 2015)
Out of some 310,000 compounds screened, about 2,200 (0.71%) showed an effect of 50% or more. Effects have a minus sign here. Some of the results follow.

Biological target: human ether-à-go-go-related gene (hERG) potassium channel (human, UniProt Q12809)
Assay: primary screen, population patch clamp on CHO cells stably expressing hERG

human ether-à-go-go-related gene (hERG) potassium channel, sequence (Q12809 whole entry, looked up): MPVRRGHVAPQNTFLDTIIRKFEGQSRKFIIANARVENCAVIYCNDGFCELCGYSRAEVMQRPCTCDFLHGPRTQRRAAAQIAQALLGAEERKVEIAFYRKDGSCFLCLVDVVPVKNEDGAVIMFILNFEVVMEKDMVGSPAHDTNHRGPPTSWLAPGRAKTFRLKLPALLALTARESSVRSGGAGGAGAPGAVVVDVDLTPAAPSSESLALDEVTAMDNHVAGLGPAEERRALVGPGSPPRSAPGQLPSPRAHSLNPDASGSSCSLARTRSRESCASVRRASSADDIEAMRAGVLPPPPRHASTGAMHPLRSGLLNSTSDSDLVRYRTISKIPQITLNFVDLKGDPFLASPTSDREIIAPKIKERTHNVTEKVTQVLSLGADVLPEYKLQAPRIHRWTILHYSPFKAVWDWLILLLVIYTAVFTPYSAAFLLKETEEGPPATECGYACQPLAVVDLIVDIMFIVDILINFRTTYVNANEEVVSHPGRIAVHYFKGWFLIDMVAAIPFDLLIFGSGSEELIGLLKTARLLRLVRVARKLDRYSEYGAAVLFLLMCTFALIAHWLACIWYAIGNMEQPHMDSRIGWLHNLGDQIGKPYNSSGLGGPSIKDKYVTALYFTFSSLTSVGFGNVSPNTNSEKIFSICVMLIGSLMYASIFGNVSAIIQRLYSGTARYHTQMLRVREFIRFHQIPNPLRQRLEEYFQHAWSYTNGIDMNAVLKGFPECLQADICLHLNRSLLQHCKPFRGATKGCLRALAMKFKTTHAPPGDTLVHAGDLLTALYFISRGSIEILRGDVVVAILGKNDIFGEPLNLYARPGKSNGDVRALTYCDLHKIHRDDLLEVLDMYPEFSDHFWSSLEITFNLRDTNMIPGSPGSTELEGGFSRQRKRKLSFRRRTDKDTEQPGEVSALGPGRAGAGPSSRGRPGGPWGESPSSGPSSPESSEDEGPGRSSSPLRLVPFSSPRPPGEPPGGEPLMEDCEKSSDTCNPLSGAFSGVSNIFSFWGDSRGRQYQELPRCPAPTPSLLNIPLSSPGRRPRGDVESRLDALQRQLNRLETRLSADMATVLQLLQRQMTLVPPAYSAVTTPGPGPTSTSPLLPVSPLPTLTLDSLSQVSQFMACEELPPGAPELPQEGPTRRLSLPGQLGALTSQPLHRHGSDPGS

Compound	hERG current change (%, negative = inhibition) at 1uM [%]
COc1ccc(/C=C/C(=O)c2sc(-c3ccccc3)nc2C)cc1	0.695
COc1cc(-c2ccc3oc(-c4ccsc4)c(C#CC4(O)CCCCC4)c3c2)cc(OC)c1OC	13.2
CC12CCC(=O)N1C(C(=O)Nc1cccc(F)c1)CS2 (centres unmarked)	5.02
COc1cc(OC)nc(NC(=O)NS(=O)(=O)c2ccc(F)cc2)n1	0.362
COc1cc2c(cc1NC(=O)CC1SC(N3CCCC3)=NC1=O)oc1ccccc12 (centres unmarked)	6.04
CCOC(=O)c1c(C)nc2c(c1-c1ccc(OC)c(OC)c1)C(=O)c1ccccc1-2	-4.73
CCCCN(C(=O)CSc1nnnn1-c1ccccc1OC)C1CCS(=O)(=O)C1 (centres unmarked)	6.19
N#CC1=C(N)OC2=C(CC/C2=C\c2ccc(F)cc2)C1c1ccc(F)cc1 (centres unmarked)	5.51
COc1ccc(S(=O)(=O)N2CCOCC2)cc1NC(=O)CN1CCCC1	16.2
Oc1ccccc1N=Cc1ccc[nH]1	5.56
COc1ccc(-c2noc(CCC(=O)NCc3cccnc3)n2)cc1	8.3
O=c1c(Cc2c(F)cccc2Cl)c(O)ccn1C1CC1	1.69
COC(=O)CN(C(=S)Nc1ccc(Cl)cc1)C1CC(=O)N(c2ccc(OC)cc2)C1=O (centres unmarked)	5.34
CCN(CC)S(=O)(=O)c1ccc2nc(COC(=O)c3n[nH]c4ccccc34)[nH]c2c1	11.4
COc1ccc(NC(=S)NCCC(c2ccccc2)c2ccccc2)c(OC)c1	2.74
Cc1ccc(Cn2c(CCCO)nc3ccccc32)cc1	7.83
CCN(CC(=O)Nc1ccc2c(c1)OCCO2)C(=O)c1ccc(C)c(S(=O)(=O)N2CCOCC2)c1	16.8
Oc1ccccc1C1=NN(c2ccccc2)C(c2ccccc2)C1 (centres unmarked)	8.11
COc1cc(OC)cc(C(=O)Nn2cc(C(=O)N3CCN(C)CC3)c3ccccc3c2=O)c1	5.06
CC(C)(C)NC(=O)C(c1ccncc1)N(Cc1cccs1)C(=O)c1csnn1 (centres unmarked)	1.82
Cc1nn(Cc2ccc(C(=O)N3N=C(C(F)F)CC3(O)C(F)F)cc2)c(C)c1[N+](=O)[O-] (centres unmarked)	-27.7
CCOC(=O)c1c(C)n(Cc2ccco2)c2c1cc(O)c1ccccc12	2.59

Compound	hERG current change (%, negative = inhibition) at 1uM [%]
CN(C)CC(c1ccccc1)c1ccccc1.Cl	8.57
CN(C(=O)c1cc(S(=O)(=O)N2CCCCC2)c[nH]1)C1CCCCC1	9.71
CCC(=O)NN1CCN(c2ccncc2S(=O)(=O)N2CCCCC2)CC1	12.7
O=C(CSc1nccn(-c2ccc(Br)cc2)c1=O)NCc1ccccc1	10.6
CCC(=O)Nc1ccc2c(c1)nc1n2CCN(C2CCCCC2)C1	2.53
Cc1ccccc1-n1c(-c2ccc(Br)o2)n[nH]c1=S	12.8
CCOC(=O)C1=C(c2ccccc2)NC(=O)NC1c1ccc(OC)c(OC)c1 (centres unmarked)	18.6
CCc1ccc(NC(=O)NCc2ccc3c(c2)OCO3)cc1	9.52
COc1cc(NS(=O)(=O)c2ccc(NC(=O)/C=C/C(=O)O)cc2)nc(OC)n1	5.24
COc1ccc(N2CCN(C(CNS(=O)(=O)c3ccccc3)c3ccccc3)CC2)cc1 (centres unmarked)	5.21
Cc1ccccc1N1C(=O)CC(=O)N(c2ccccc2C)C1=O	12
O=C(O)COc1ccccc1/C=C1\SC(=Nc2ccc(F)cc2)N(c2ccc(F)cc2)C1=O	1.58
O=C(Nc1ccccc1C(=O)O)c1cccc(NC(=O)c2ccccc2Br)c1	6.41
Cc1nn(-c2ccccc2)c(C)c1CN(C)C(=O)c1ccc(S(=O)(=O)NCc2ccco2)cc1	7.15
Cc1ccc(OCC(=O)N/N=C/c2cccn2C)cc1	7
O=C(CCC(=O)N1CCCC1)Nc1nnc(C(F)(F)F)s1	6.08
COc1ccc2c(CC(=O)NCCN3C(=O)S/C(=C\c4cccnc4)C3=O)coc2c1	13.3
COC(=O)c1ccc(NC(=O)CSc2nnc(COc3ccc4c(c3)CCCC4)o2)cc1	5.55
CC1C(=O)N2CCCc3cc(NC(=O)c4ccccc4F)cc1c32 (centres unmarked)	3.99
O=C(COC(=O)COc1cccc(C(F)(F)F)c1)NC(=O)NC1CCCCC1	-4.65
COc1ccc(NC(=O)CCCN2C(=O)/C(=C\c3ccco3)SC2=S)cc1	14.9
COc1ccc(C(C(=O)NC(C)(C)C)N(C(=O)CCC(=O)Nc2cc(C)on2)c2c(C)cccc2C)cc1 (centres unmarked)	10.2
